Laboratory results reported in PubChem BioAssay (NCI).
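Where inhibition never reached the appropriate level, the endpoint shown equals the highest concentration tested. Otherwise, values were interpolated linearly from a five-concentration, 48-hour dose response in 96-well plates. The concentration for 50% growth inhibition is given as GI50.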 Not every entry of the source has a single result; some have several. This list holds those alone. The source may hold further records. For part of these data: Values given together repeat one measurement across runs, samples, wells, individuals or studies. A tag in brackets gives the origin of a value. Letters count within one entry.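 TGI: total growth inhibition.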 For part of these data: A record mostly stands for its own series of concentrations, which the source does not state; some values may only mark the edge of a range.

Legend:
Test in all cases: NCI-60 cell line screen, 48 h
ACHN renal = tested on: ACHN renal
T-47D breast = tested on: T-47D breast
A498 renal = tested on: A498 renal
CCRF-CEM leukemia = tested on: CCRF-CEM leukemia
COLO 205 colon = tested on: COLO 205 colon
EKVX NSCLC = tested on: EKVX NSCLC
HCC-2998 colon = tested on: HCC-2998 colon
HCT-116 colon = tested on: HCT-116 colon
HL-60(TB) leukemia = tested on: HL-60(TB) leukemia
HOP-62 NSCLC = tested on: HOP-62 NSCLC
HOP-92 NSCLC = tested on: HOP-92 NSCLC
HT29 colon = tested on: HT29 colon
IGROV1 ovarian = tested on: IGROV1 ovarian
K-562 leukemia = tested on: K-562 leukemia
KM12 colon = tested on: KM12 colon
LOX IMVI melanoma = tested on: LOX IMVI melanoma
MALME-3M melanoma = tested on: MALME-3M melanoma
MCF7 breast = tested on: MCF7 breast
NCI-H226 lung = tested on: NCI-H226 lung
NCI-H23 lung = tested on: NCI-H23 lung
NCI-H460 lung = tested on: NCI-H460 lung
NCI-H522 lung = tested on: NCI-H522 lung
NCI/ADR-RES ovarian = tested on: NCI/ADR-RES ovarian
OVCAR-3 ovarian = tested on: OVCAR-3 ovarian
OVCAR-4 ovarian = tested on: OVCAR-4 ovarian
OVCAR-5 ovarian = tested on: OVCAR-5 ovarian
OVCAR-8 ovarian = tested on: OVCAR-8 ovarian
RPMI-8226 leukemia = tested on: RPMI-8226 leukemia
RXF 393 renal = tested on: RXF 393 renal
SF-295 CNS = tested on: SF-295 CNS
SF-539 CNS = tested on: SF-539 CNS
SK-MEL-28 melanoma = tested on: SK-MEL-28 melanoma
SK-MEL-5 melanoma = tested on: SK-MEL-5 melanoma
SK-OV-3 ovarian = tested on: SK-OV-3 ovarian
SN12C renal = tested on: SN12C renal
SNB-75 CNS = tested on: SNB-75 CNS
SW-620 colon = tested on: SW-620 colon
UACC-62 melanoma = tested on: UACC-62 melanoma
UO-31 renal = tested on: UO-31 renal

COC1C(O)C(C)OC(OC2C(Oc3cccc4c(O)c5c(=O)oc6ccc(C)c7c(=O)oc(c34)c5c67)OC(C)C3O[C@H](c4ccccc4)OC32)C1O (some centres not stated)
TGI (ACHN renal): 143 nM and 1.81 µM | TGI (T-47D breast): 975 nM and 14.7 µM

C/C=C(\C)c1cc(=O)c2c(C)cc3c(c2o1)C(=O)c1c(O)c(C2CC(C)(N(C)C)C(O)C(C)O2)cc(C2CC(N(C)C)C(O)C(C)O2)c1C3=O (configuration not stated)
GI50 (A498 renal): 198 nM [sample A, mean of 2 tests] and 5.97 µM [sample B, 1 test] | GI50 (CCRF-CEM leukemia): 49.3 nM [sample A, mean of 2 tests] and 2.17 µM [sample B, mean of 2 tests] | GI50 (COLO 205 colon): 224 nM [sample A, mean of 2 tests] and 3.21 µM [sample B, 1 test] | GI50 (EKVX NSCLC): 340 nM [sample A, mean of 2 tests] and 3.73 µM [sample B, 1 test] | GI50 (HCC-2998 colon): 130 nM [sample A, 1 test] and 2.85 µM [sample B, mean of 2 tests] | TGI (HCC-2998 colon): 302 nM [sample A, 1 test] and 11.2 µM [sample B, mean of 2 tests] | GI50 (HCT-116 colon): 48.2 nM [sample A, mean of 2 tests] and 537 nM [sample B, 1 test] | GI50 (HL-60(TB) leukemia): 81.8 nM [sample A, 1 test] and 1.48 µM [sample B, 1 test] | GI50 (HOP-62 NSCLC): 116 nM [sample A, 1 test] and 4.53 µM [sample B, mean of 2 tests] | TGI (HOP-62 NSCLC): 303 nM [sample A, 1 test] and 14.4 µM [sample B, mean of 2 tests] | TGI (HOP-92 NSCLC): 804 nM [sample A] and 9.41 µM [sample B] | GI50 (HT29 colon): 81.8 nM [sample A, mean of 2 tests] and 1.34 µM [sample B, 1 test] | GI50 (IGROV1 ovarian): 289 nM [sample A, mean of 2 tests] and 4.35 µM [sample B, mean of 2 tests] | GI50 (K-562 leukemia): 76.2 nM [sample A, mean of 2 tests] and 1.96 µM [sample B, mean of 2 tests] | GI50 (KM12 colon): 208 nM [sample A, mean of 2 tests] and 2.42 µM [sample B, mean of 2 tests] | GI50 (LOX IMVI melanoma): 68.6 nM [sample A, mean of 2 tests] and 1.8 µM [sample B, 1 test] | TGI (LOX IMVI melanoma): 461 nM [sample A, mean of 2 tests] and 7.43 µM [sample B, 1 test] | GI50 (MALME-3M melanoma): 247 nM [sample A, mean of 2 tests] and 3.46 µM [sample B, mean of 2 tests] | TGI (MALME-3M melanoma): 731 nM [sample A, mean of 2 tests] and 13.6 µM [sample B, mean of 2 tests] | GI50 (MCF7 breast): 33.4 nM [sample A, mean of 2 tests] and 853 nM [sample B, 1 test] | GI50 (NCI-H226 lung): 210 nM [sample A, mean of 2 tests] and 2.2 µM [sample B, 1 test] | TGI (NCI-H226 lung): 709 nM [sample A, mean of 2 tests] and 8.76 µM [sample B, 1 test] | GI50 (NCI-H23 lung): 165 nM [sample A, mean of 2 tests] and 2.37 µM [sample B, mean of 2 tests] | GI50 (NCI-H460 lung): < 16 nM [sample A, mean of 2 tests] and 340 nM [sample B, mean of 2 tests] | TGI (NCI-H460 lung): 214 nM [sample A, mean of 2 tests] and 4.29 µM [sample B, mean of 2 tests] | GI50 (NCI-H522 lung): 165 nM [sample A, 1 test] and 2.32 µM [sample B, mean of 2 tests] | TGI (NCI-H522 lung): 363 nM [sample A, 1 test] and 8.25 µM [sample B, mean of 2 tests] | TGI (NCI/ADR-RES ovarian): 3.66 µM [sample A, mean of 2 tests] and 43 µM [sample B, 1 test] | GI50 (OVCAR-3 ovarian): 214 nM [sample A, mean of 2 tests] and 6.31 µM [sample B, mean of 2 tests] | TGI (OVCAR-3 ovarian): 1.33 µM [sample A, mean of 2 tests] and 22.1 µM [sample B, mean of 2 tests] | GI50 (OVCAR-4 ovarian): 231 nM [sample A, mean of 2 tests] and 2.85 µM [sample B, 1 test] | TGI (OVCAR-5 ovarian): 2.91 µM [sample A, mean of 2 tests] and 31.2 µM [sample B, mean of 2 tests] | GI50 (OVCAR-8 ovarian): 70.2 nM [sample A, mean of 2 tests] and 2.4 µM [sample B, mean of 2 tests] | TGI (OVCAR-8 ovarian): 424 nM [sample A, mean of 2 tests] and 21.2 µM [sample B, mean of 2 tests] | GI50 (RPMI-8226 leukemia): 204 nM [sample A, 1 test] and 3.53 µM [sample B, mean of 2 tests] | TGI (RPMI-8226 leukemia): 809 nM [sample A, 1 test] and 52.9 µM [sample B, mean of 2 tests] | TGI (RXF 393 renal): 325 nM [sample A, 1 test] and 5 µM [sample B, mean of 2 tests] | GI50 (SF-295 CNS): 224 nM [sample A, mean of 2 tests] and 2.26 µM [sample B, mean of 2 tests] | TGI (SF-295 CNS): 854 nM [sample A, mean of 2 tests] and 19.7 µM [sample B, mean of 2 tests] | GI50 (SF-539 CNS): 146 nM [sample A, mean of 2 tests] and 3.59 µM [sample B, 1 test] | TGI (SF-539 CNS): 354 nM [sample A, mean of 2 tests] and 15.1 µM [sample B, 1 test] | GI50 (SK-MEL-28 melanoma): 210 nM [sample A, mean of 2 tests] and 4.54 µM [sample B, mean of 2 tests] | TGI (SK-MEL-28 melanoma): 491 nM [sample A, mean of 2 tests] and 16.4 µM [sample B, mean of 2 tests] | GI50 (SK-MEL-5 melanoma): 181 nM [sample A, mean of 2 tests] and 2.86 µM [sample B, mean of 2 tests] | TGI (SK-MEL-5 melanoma): 468 nM [sample A, mean of 2 tests] and 12.2 µM [sample B, mean of 2 tests] | GI50 (SK-OV-3 ovarian): 273 nM [sample A, mean of 2 tests] and 6.64 µM [sample B, mean of 2 tests] | TGI (SK-OV-3 ovarian): 3.56 µM [sample A, mean of 2 tests] and 88.8 µM [sample B, mean of 2 tests] | GI50 (SN12C renal): 235 nM [sample A, mean of 2 tests] and 3.07 µM [sample B, mean of 2 tests] | TGI (SN12C renal): 1.29 µM [sample A, mean of 2 tests] and > 51.4 µM [sample B, mean of 2 tests] | GI50 (SNB-75 CNS): 144 nM [sample A, mean of 2 tests] and 4.02 µM [sample B, mean of 2 tests] | TGI (SNB-75 CNS): 310 nM [sample A, mean of 2 tests] and 18.4 µM [sample B, mean of 2 tests] | GI50 (SW-620 colon): 73.7 nM [sample A, 1 test] and 1.99 µM [sample B, 1 test] | GI50 (UACC-62 melanoma): 144 nM [sample A, mean of 2 tests] and 4.34 µM [sample B, 1 test] | TGI (UACC-62 melanoma): 408 nM [sample A, mean of 2 tests] and 29.8 µM [sample B, 1 test] | TGI (UO-31 renal): 2.22 µM [sample A, mean of 2 tests] and > 58 µM [sample B, mean of 2 tests]
